According to PubChem BioAssay AID504332 (National Center for Advancing Translational Sciences (NCATS), 2011):
Hit rate of the full screen: of about 350,000 compounds, about 31,000 (8.9%) were called active. Inconclusive results, whose numbers are uncertain, are shown with a selection of clear calls. The call rests on the fitted dose curve; in most records, active means well fitted inhibition curve with a large enough effect; inconclusive means small, poorly fitted or top-dose-only effect; inactive means no such curve, though single readings can be large or run the other way. Where the call is inconclusive, the potency comes from a doubtful curve fit.
Further: nearly all actives have a fitted effect of over 75% in size.
On the % scale 0 is the no-effect control and ±100 the full control effect; potency means the concentration at half of the fitted maximal effect; tags describe the fitted curve by direction and shape.

The compounds below were run against Histone-lysine N-methyltransferase EHMT2 (Homo sapiens) (UniProt Q96KQ7) (assay: qHTS Assay for Inhibitors of Histone Lysine Methyltransferase G9a). Details: G9a H3K9 monomethylation, AlphaScreen, 2 h; activity, negative = inhibition: at 59 µM (top of the series) unless noted.
UniProt Q96KQ7, sequence (Q96KQ7 whole entry, looked up): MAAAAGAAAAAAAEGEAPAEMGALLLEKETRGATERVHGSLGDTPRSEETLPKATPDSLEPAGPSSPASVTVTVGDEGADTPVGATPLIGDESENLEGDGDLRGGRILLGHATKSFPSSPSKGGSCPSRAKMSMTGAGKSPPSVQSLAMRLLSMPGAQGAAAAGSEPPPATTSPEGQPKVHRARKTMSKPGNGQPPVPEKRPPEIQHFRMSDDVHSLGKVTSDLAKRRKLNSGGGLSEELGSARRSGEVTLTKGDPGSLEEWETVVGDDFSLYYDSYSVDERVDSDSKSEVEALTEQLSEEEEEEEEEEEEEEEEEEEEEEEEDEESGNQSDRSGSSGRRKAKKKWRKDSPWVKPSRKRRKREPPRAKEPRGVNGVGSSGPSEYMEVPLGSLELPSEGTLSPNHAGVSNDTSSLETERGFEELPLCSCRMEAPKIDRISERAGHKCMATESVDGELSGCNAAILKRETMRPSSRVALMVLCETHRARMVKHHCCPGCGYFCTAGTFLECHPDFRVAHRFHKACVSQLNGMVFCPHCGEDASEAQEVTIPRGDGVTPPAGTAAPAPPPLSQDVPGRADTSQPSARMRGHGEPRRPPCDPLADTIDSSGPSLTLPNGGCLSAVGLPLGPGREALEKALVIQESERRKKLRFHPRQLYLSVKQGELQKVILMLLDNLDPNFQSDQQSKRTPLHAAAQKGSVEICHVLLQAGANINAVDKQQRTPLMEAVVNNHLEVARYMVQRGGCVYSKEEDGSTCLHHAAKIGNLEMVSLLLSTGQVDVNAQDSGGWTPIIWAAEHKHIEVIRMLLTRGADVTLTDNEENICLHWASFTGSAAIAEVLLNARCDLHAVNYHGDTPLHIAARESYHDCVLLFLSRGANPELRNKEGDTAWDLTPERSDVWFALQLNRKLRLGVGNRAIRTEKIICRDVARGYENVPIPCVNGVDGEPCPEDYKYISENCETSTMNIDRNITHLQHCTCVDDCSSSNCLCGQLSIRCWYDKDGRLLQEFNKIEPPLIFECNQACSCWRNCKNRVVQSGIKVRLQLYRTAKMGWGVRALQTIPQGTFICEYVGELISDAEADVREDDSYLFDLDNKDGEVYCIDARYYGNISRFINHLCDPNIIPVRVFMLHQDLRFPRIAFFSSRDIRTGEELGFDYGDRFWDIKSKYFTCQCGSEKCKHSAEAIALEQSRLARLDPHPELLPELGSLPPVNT
In short: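 Chemiluminescent proximity detection of H3K9 monomethylation, read after 10 min bead incubation in the dark. Reaction: 20 nM G9a, 500 nM biotin-H3K9 peptide, 20 uM SAM cofactor, 2 h, room temperature, following 15 min enzyme-compound preincubation.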
In the case of CCCCN(CCCC)CCNC(=O)c1cn(CC)c2ccc(S(=O)(=O)N3CCc4ccccc4C3)cc2c1=O, the Potency is reported as “inactive”. In the case of CC(=O)Oc1cc2c(cc1Cl)C1(CC(c3ccccc3Cl)O2)CC(C)(C)NC(=S)N1 (stereo unspecified), the Potency is reported as inconclusive: 2.51 µM [inhibitor, partial curve, poor fit]. For CCOC(=O)C1CCN(C(=O)c2cccc(S(=O)(=O)N(CC)c3ccccc3)c2)CC1, the activity, negative = inhibition was inactive: -14.3% [at 12.7 µM]. In the case of COc1cc(C)c(NC(c2ccccc2)c2ccccc2)cc1OC, the Potency is reported as active: 28.2 µM. In the case of CC(=O)Nc1ccc(-c2nnc(SCc3c(C)cc(C)cc3C)n2C)cc1, the Potency is reported as inconclusive: 89.1 µM [inhibitor, single point]. In the case of NS(=O)(=O)c1ccc(NC(=S)NC(=O)c2ccc3c(c2)OCO3)cc1, the Potency is reported as active: 39.8 µM. With O=C(CN(CCc1ccccc1)S(=O)(=O)c1ccc(Br)cc1)NCc1ccc(Cl)cc1 the Potency was inconclusive: 15.8 µM [inhibitor, partial curve, poor fit]. For COc1ccc(N(Cc2cccs2)C(=O)c2ccc(Br)o2)cc1, the Potency was “inactive”. CCC1CN(C(=O)C2CCN(S(=O)(=O)c3c(C)noc3/C=C/c3ccccc3F)CC2)c2cc(Cl)ccc2O1 (stereo unspecified) was tested, and the Potency was “inactive”. With C=CCn1c(C(CCCC)CC(O)COCC(C)C)n[nH]c1=S (stereo unspecified) the Potency was active: 31.6 µM. With Cc1ccc(NS(=O)(=O)c2ccc3c(c2)n(C)c(=O)n3C)cc1 the activity, negative = inhibition was inactive: -12.1% [at 2.33 µM]. OC(COC(c1ccc(Cl)cc1)c1ccc(Cl)cc1)CN1CCN(c2ccccn2)CC1 (stereo unspecified) was tested, and the Potency was inconclusive: 25.1 µM [inhibitor, single point]. For Cc1ccc(Cl)cc1NC(=O)c1ccccn1, the Potency was inconclusive: 89.1 µM [inhibitor, single point]. With COC(=O)C1=C2SC(C)C(=O)N2C(N)=C(C#N)C1c1ccc(OC)c(OC)c1 (stereo unspecified) the Potency was inconclusive: 39.8 µM [inhibitor, partial curve, poor fit]. For Cc1cc(C(=O)NNC(=O)c2nn(C)c(=O)c3ccccc23)c(C)o1, the Potency was inconclusive: 1.26 µM [inhibitor, full curve, poor fit]. In the case of COc1ccc(CC(=O)NNC(=S)Nc2ccccc2)cc1Cl, the Potency is reported as active: 50.1 µM. With CCOC(=O)CSc1nc2c([nH]c3ccccc32)c(=O)n1-c1ccc(OC)cc1 the Potency was “inactive”. N#CCc1c(C#N)c(N)nc(N2CCN(S(=O)(=O)c3ccccc3)CC2)c1C#N was tested, and the Potency was inconclusive: 39.8 µM [inhibitor, single point]. In the case of N/C(CSc1nc(-c2ccccc2)c(-c2ccccc2)o1)=N\O, the Potency is reported as inconclusive: 35.5 µM [inhibitor, single point]. For CC=C(/C(=C/C)c1ccc(O)cc1)c1ccc(O)cc1, the Potency was “inactive”. For c1ccc(-c2csc3ncnc(N4CCc5ccccc5C4)c23)cc1, the Potency was “inactive”. With Cc1ccc(N/N=C/c2ccc3c(c2)OCCO3)cc1Cl the Potency was active: 8.91 µM. In the case of CC(=O)Nc1cc(C(=O)O)ccc1S(=O)(=O)c1ccc(C)cc1, the Potency is reported as active: 50.1 µM. In the case of CCOC(=O)N1CCN(C(=O)CCn2c(=S)[nH]c3ccccc3c2=O)CC1, the Potency is reported as inconclusive: 79.4 µM [inhibitor, single point]. With CC(C(=O)O)N1C(=O)/C(=C/c2cccn2C)SC1=S (stereo unspecified) the Potency was inconclusive: 7.94 µM [inhibitor, full curve]. Cc1ccc(S(=O)(=O)N(C)C)cc1NC(=O)CCc1c[nH]c2ccccc12 was tested, and the Potency was “inactive”. In the case of COc1ccc(C(c2c(NC(C)=O)sc3c2CCCC3)N2CCN(CCO)CC2)cc1OC (stereo unspecified), the Potency is reported as inconclusive: 44.7 µM [inhibitor, partial curve, poor fit]. For Cc1cccn2c(=O)c(C=NCCO)c(NCc3ccco3)nc12, the Potency was inconclusive: 28.2 µM [inhibitor, single point]. With CC(C)(C)NC(=O)CN1CCN(C(=O)CCl)CC1 the Potency was inconclusive: 50.1 µM [inhibitor, partial curve, poor fit]. In the case of O=C(c1ccc(S(=O)(=O)c2ccccc2Cl)c([N+](=O)[O-])c1)N1CCCCCC1, the Potency is reported as inconclusive: 70.8 µM [inhibitor, single point]. COc1cccc(C(=O)Nc2ccc(S(=O)(=O)Nc3cc(C)nc(C)n3)cc2)c1 was tested, and the Potency was inconclusive: 35.5 µM [inhibitor, full curve]. In the case of COc1ccc(/C=N/NC(=O)c2cccc(O)c2)cc1Cn1nc(C)c([N+](=O)[O-])c1C, the Potency is reported as inconclusive: 79.4 µM [inhibitor, partial curve, poor fit]. In the case of COc1cc(/C=N/N(C)C)ccc1OC(=O)c1ccco1, the Potency is reported as active: 28.2 µM. COc1ccc(/C=C(/NC(=O)c2ccccc2)C(=O)NCCCn2ccnc2)cc1OC was tested, and the Potency was “inactive”. In the case of CCOC(=O)N1CCN(c2nc3c(C)cccn3c(=O)c2C=O)CC1, the Potency is reported as “inactive”. CCCCc1nnc(NC(=O)CN2C(=O)NC3(CCCCC3)C2=O)s1 was tested, and the Potency was “inactive”. With CN(C(=O)COC(=O)CNC(=O)c1ccc(Cl)cc1Cl)c1ccccc1 the Potency was “inactive”. COc1ccc(NC(=O)c2cc(S(=O)(=O)NCC3COc4ccccc4O3)ccc2F)cc1 (stereo unspecified) was tested, and the Potency was “inactive”. Cc1ccccc1-c1nc(CS(=O)CC(=O)NC2CCCCC2)c(C)o1 (stereo unspecified) was tested, and the Potency was inconclusive: 50.1 µM [inhibitor, partial curve, poor fit]. In the case of Cc1ccc(NC(=O)C2CCCN2S(=O)(=O)c2ccc3nc(-c4ccccc4)[nH]c3c2)cc1F (stereo unspecified), the Potency is reported as “inactive”. In the case of CN(C)c1ccc(-c2nn3c(-c4ccc(Cl)cc4Cl)nnc3s2)cc1, the Potency is reported as active: 14.1 µM. In the case of CCOCCn1c(CN2CCN(c3cccc(Cl)c3)CC2)nc2c1c(=O)n(C)c(=O)n2C, the Potency is reported as inconclusive: 100 µM [inhibitor, single point]. CN(CCc1ccccn1)C1CC(=O)N(c2ccc(Cl)cc2)C1=O (stereo unspecified) was tested, and the Potency was active: 5.01 µM. For O=C(OC(c1ccccc1)c1nccc2ccccc12)c1cccc([N+](=O)[O-])c1 (stereo unspecified), the Potency was inconclusive: 39.8 µM [inhibitor, full curve, poor fit]. In the case of COc1cc(NC(=O)Cc2c(C(=O)O)n(C)c3ccccc23)cc(OC)c1OC, the Potency is reported as inconclusive: 44.7 µM [inhibitor, partial curve]. With COc1cccc(-c2ccc(NC(=O)C3CCCN(Cc4cnc(C)n4C)C3)cc2)c1 (stereo unspecified) the Potency was inconclusive: 70.8 µM [inhibitor, single point]. COC(=O)c1ccc(C2/C(=C(\O)c3ccc4c(c3)OCCO4)C(=O)C(=O)N2c2nnc(C)s2)cc1 (stereo unspecified) was tested, and the Potency was active: 44.7 µM. With Cc1ccc(C(C)NC(=O)/C(C#N)=C\c2c(C)[nH]c3ccccc23)cc1 (stereo unspecified) the Potency was “inactive”. In the case of CCCCN(C)Cc1c(C)[nH]c2ccccc2c1=O, the Potency is reported as inconclusive: 89.1 µM [inhibitor, partial curve, poor fit]. COc1cc2c(cc1C=O)OC(C)C2 (stereo unspecified) was tested, and the Potency was “inactive”. CCn1c(=O)c2ccccc2n(CC(=O)N2CCCc3ccccc32)c1=O was tested, and the activity, negative = inhibition was inactive: -7.66% [at 0.501 µM]. For Cc1cc2c(c(=O)n1C)C(Cc1ccccc1)C(C#N)=C(N)O2 (stereo unspecified), the Potency was inconclusive: 50.1 µM [inhibitor, partial curve, poor fit]. With CCCCC(=O)OC1=C(C(C)=O)N(Cc2ccccc2)S(=O)(=O)c2ccccc21 the Potency was inconclusive: 28.2 µM [inhibitor, single point]. C[C@@H]1C=C[C@](Cc2ccccc2)(C(=O)NCC2CC2)N1C(=O)c1ccccc1 was tested, and the Potency was inconclusive: 56.2 µM [inhibitor, partial curve, poor fit]. For Cc1cccn2c(=O)c(C=C(C#N)C#N)c(N3CCN(c4ccccc4)CC3)nc12, the Potency was inconclusive: 3.55 µM [inhibitor, full curve]. COc1ccc(OC)c(NC(=O)c2ccc(S(=O)(=O)N3CCOCC3)cc2)c1 was tested, and the Potency was inconclusive: 70.8 µM [inhibitor, single point]. For COc1ccc(N2CCN(C(=O)NCc3cccc(OC)c3)CC2)cc1, the Potency was inconclusive: 89.1 µM [inhibitor, single point]. With O=C(NCc1ccco1)C(c1ccncc1)N(C(=O)Cn1nnc2ccccc21)c1ccccc1 (stereo unspecified) the Potency was inconclusive: 79.4 µM [inhibitor, single point]. For O=C(Cn1nc(-c2ccccc2)nc(Cc2ccccc2)c1=O)Nc1ccccc1, the Potency was “inactive”. With CCCSc1nnc(Cc2cc(=O)[nH]c(=O)[nH]2)n1-c1cc(C)ccc1C the activity, negative = inhibition was inconclusive: -51.4% [inhibitor]. CN(C)S(=O)(=O)c1cccc(NC(=O)COC(=O)CCC(=O)c2ccc(F)cc2)c1 was tested, and the Potency was inconclusive: 3.16 µM [inhibitor, single point]. With O=C(CCCn1c(=S)[nH]c2cc3c(cc2c1=O)OCO3)NC1CC1 the activity, negative = inhibition was inconclusive: -82.4% [inhibitor]. For N#C/C(=C\c1cccc(Br)c1)C(=O)N1CCCCC1, the Potency was inconclusive: 89.1 µM [inhibitor, single point]. Cc1ccc(NS(=O)(=O)c2cnc(N)nc2)c(C)c1 was tested, and the Potency was “inactive”. For Cc1ccc2c(c1)c1c(n2C)C(=O)CCC1, the activity, negative = inhibition was inactive: 11.8% [at 12.7 µM]. In the case of COc1ccc(-c2cn3nc4c(nc3n2)CCCC4)cc1, the Potency is reported as active: 79.4 µM. Cc1nc(NCC2CCCO2)c2oc3ccccc3c2n1 (stereo unspecified) was tested, and the Potency was inconclusive: 100 µM [inhibitor, single point]. In the case of CCN(CC)CCNC(=O)C1CCN(c2cc(C)nc3c(-c4ccc(Cl)cc4)c(C)nn23)CC1, the Potency is reported as “inactive”. In the case of CCCCn1cnc2c(sc3nc4c(cc32)CSC(C)(C)C4)c1=O, the Potency is reported as “inactive”. CCOc1ccc(NC2c3ccccc3C(=O)N2c2ccc(Cl)cn2)cc1 (stereo unspecified) was tested, and the Potency was inconclusive: 39.8 µM [inhibitor, single point]. C=CCN(c1ccccc1)S(=O)(=O)c1c(C)[nH]c(=O)[nH]c1=O was tested, and the Potency was inconclusive: 89.1 µM [inhibitor, partial curve, poor fit].
